This passage reports IC50 results from patent US11618753B2 (priority 2018, dated 2023).

The experiment concerns MLKL phosphorylation, HT29-L23 human colorectal adenocarcinoma cells. In words: cells. The conditions noted are these: read-out: pMLKL HCS Cell Assay (IC50, uM).
With `COc1ncc(-c2cc(C(F)(F)F)c3c(N)ncnn23)cc1C(=O)Nc1cnn(CCC(C)(O)C(F)(F)F)c1` (stereo not drawn) [Example 1790, 5-(4-amino-5-(trifluoromethyl)pyrrolo[2,1-f][1,2,4]triazin-7-yl)-2-methoxy-N-(1-(4,4,4-trifluoro-3-hydroxy-3-methylbutyl)-1H-pyrazol-4-yl)nicotinamide], the IC50 is 0.095 µM.
`COc1ncc(-c2cc(CN3CCC(F)(F)CC3)c3c(N)ncnn23)cc1C(=O)N[C@@H]1CN(S(=O)(=O)CCC(F)(F)F)C[C@@H]1F` [Example 1541, 5-{4-amino-5-[(4,4-difluoropiperidin-1-yl)methyl]pyrrolo[2,1-f][1,2,4]triazin-7-yl}-N-[(3R,4S)-4-fluoro-1-(3,3,3-trifluoropropanesulfonyl)pyrrolidin-3-yl]-2-methoxypyridine-3-carboxamide]: the IC50 came out at 0.00083 µM.
Take `COc1ncc(-c2cc(C(F)(F)F)c3c(NC(=O)C(C)(C)F)ncnn23)cc1C(=O)N[C@@H]1CN(C(=O)[C@@](C)(O)C(F)(F)F)C[C@@H]1F` [Example 1343, N-[(3R,4S)-4-fluoro-1-[(2R)-3,3,3-trifluoro-2-hydroxy-2-methylpropanoyl]pyrrolidin-3-yl]-5-[4-(2-fluoro-2-methylpropanamido)-5-(trifluoromethyl)pyrrolo[2,1-f][1,2,4]triazin-7-yl]-2-methoxypyridine-3-carboxamide]: the 50% inhibitory concentration (IC50) was 0.00087 µM.
With `Cc1c(F)cc(-c2cc(CN3CC(F)(F)C3)c3c(N)ncnn23)cc1C(=O)N[C@@H]1CN(C(=O)C2CC2(F)F)C[C@@H]1F` (stereo partly drawn) [Example 1564, 5-{4-amino-5-[(3,3-difluoroazetidin-1-yl)methyl]pyrrolo[2,1-f][1,2,4]triazin-7-yl}-N-[(3R,4S)-1-(2,2-difluorocyclopropanecarbonyl)-4-fluoropyrrolidin-3-yl]-3-fluoro-2-methylbenzamide], the IC50 was found to be 0.001 µM.
To `COc1ncc(-c2c(F)cc3c(N)ncnn23)cc1C(=O)N[C@@H]1CN(C(=O)[C@@](C)(O)C(F)(F)F)C[C@@H]1F` [Example 1603, 5-{4-amino-6-fluoropyrrolo[2,1-f][1,2,4]triazin-7-yl}-N-[(3R,4S)-4-fluoro-1-[(2R)-3,3,3-trifluoro-2-hydroxy-2-methylpropanoyl]pyrrolidin-3-yl]-2-methoxypyridine-3-carboxamide] belongs 0.0099 µM; to `COc1ncc(-c2cc(C(F)(F)F)c3c(N)ncnn23)cc1C(=O)N[C@@H]1CN(C(=O)c2cnc(C)cn2)C[C@@H]1F` [Example 1213, 5-[4-amino-5-(trifluoromethyl)pyrrolo[2,1-f][1,2,4]triazin-7-yl]-N-[(3R,4S)-4-fluoro-1-(5-methylpyrazine-2-carbonyl)pyrrolidin-3-yl]-2-methoxypyridine-3-carboxamide], 0.02 µM; to `COc1ncc(-c2c(F)cc3c(N)ncnn23)cc1C(=O)N[C@@H]1CN(C(=O)C2CCOCC2)C[C@@H]1F` [Example 509, 5-{4-amino-6-fluoropyrrolo[2,1-f][1,2,4]triazin-7-yl}-N-[(3R,4S)-4-fluoro-1-(oxane-4-carbonyl)pyrrolidin-3-yl]-2-methoxypyridine-3-carboxamide], 0.315 µM.
As to `COc1ncc(-c2cc(C(F)(F)F)c3c(N)ncnn23)cc1C(=O)N[C@@H]1CN(C(=O)CC2(C)CC2)C[C@@H]1F` [Example 1207, 5-[4-amino-5-(trifluoromethyl)pyrrolo[2,1-f][1,2,4]triazin-7-yl]-N-[(3R,4S)-4-fluoro-1-[2-(1-methylcyclopropyl)acetyl]pyrrolidin-3-yl]-2-methoxypyridine-3-carboxamide], the IC50 was found to be 0.024 µM.
To `CCc1ccc(-c2cc(C(F)(F)F)c3c(N)ncnn23)c(F)c1C(=O)N[C@@H]1CN(C(=O)CC(C)(O)C(F)(F)F)C[C@@H]1F` (stereo partly drawn) [Example 734, 3-[4-amino-5-(trifluoromethyl)pyrrolo[2,1-f][1,2,4]triazin-7-yl]-6-ethyl-2-fluoro-N-[(3R,4S)-4-fluoro-1-(4,4,4-trifluoro-3-hydroxy-3-methylbutanoyl)pyrrolidin-3-yl]benzamide] belongs 0.026 µM.

What is called IC50 is the point on the concentration scale where inhibition reaches its midpoint.
